± gives the standard deviation of the averaged measurements. Whole data set: some 33,000 sequences, median “E-score (dimensionless, -0.5 to 0.5)” near -0.049, cut for the highest 2% near 0.37. The list shows a part of the results.
test system: T1, PmTbr T-box DNA-binding domain (GST fusion); assay: PBM E-score of 8-mer (E-score (dimensionless, -0.5 to 0.5)); Tbr is Tbrain of the sea star Patiria miniata (Pm) or the sea urchin Strongylocentrotus purpuratus (Sp); higher = stronger binding preference; most listed sequences are background and not binding sites; details: the construct has about 5 more residues each side
T1 sequence: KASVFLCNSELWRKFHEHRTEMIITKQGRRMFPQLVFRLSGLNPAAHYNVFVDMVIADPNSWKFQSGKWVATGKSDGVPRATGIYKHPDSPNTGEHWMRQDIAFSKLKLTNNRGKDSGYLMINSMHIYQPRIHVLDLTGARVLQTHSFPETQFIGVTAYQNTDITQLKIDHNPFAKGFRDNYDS
In short: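 Primer extension turned Universal Agilent oligonucleotide arrays double-stranded. They were incubated with 200 nM protein in PBS (pH 7.5); the protein was a GST-fused Tbr T-box DNA-binding domain expressed in BL21 E. coli at 20 °C and purified on glutathione. Every ungapped 8-mer was scored from the scanned, quantified probe intensities, and the Universal PBM Analysis Suite gave each an enrichment E-score averaged over duplicate arrays.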

Going from AAACCGGC to GCTTGCAC, the “PBM E-score of 8-mer” value rises from -0.128 ± 0.049 to 0.178 ± 0.012.

Compared with CCTATCAC, GGGAGAAA is lower in “PBM E-score of 8-mer” value: 0.311 ± 0.019 for the first, -0.1242 ± 0.00032 for the second.

Compared with GTGTATTA, CAGGTTGC is higher in “PBM E-score of 8-mer” value: -0.015 ± 0.035 for the first, 0.0654 ± 0.011 for the second.

Going from CCGGCTAG to GGCCACCC, the “PBM E-score of 8-mer” value falls from 0.00455 ± 0.013 to -0.101 ± 0.023.

First: AGTGCACT
Second: AGGCTGCA
The “PBM E-score of 8-mer” value of the first is lower: -0.103 ± 0.027 for the first, 0.0452 ± 0.014 for the second.

ACTGAACT and GACCTATA are within error of each other in “PBM E-score of 8-mer” value: -0.181 ± 0.011 for the first, -0.179 ± 0.08 for the second.

GGACAGCC and GGCCGACA are within error of each other in “PBM E-score of 8-mer” value: -0.127 ± 0.07 for the first, 0.0775 ± 0.14 for the second.

First: CGCAGCCC
Second: AACCCTCA
The “PBM E-score of 8-mer” value of the first is lower: -0.183 ± 0.0047 for the first, -0.0541 ± 0.0098 for the second.

Compared with GCGCTAGC, AGCGGCCG is lower in “PBM E-score of 8-mer” value: 0.176 ± 0.039 for the first, 0.00312 ± 0.042 for the second.

First: CGGCTTCC
Second: ATCAATCA
The “PBM E-score of 8-mer” value of the first is lower: -0.0412 ± 0.097 for the first, 0.138 ± 0.08 for the second.

Going from CGGCTGAA to CACATTGG, the “PBM E-score of 8-mer” value rises from -0.209 ± 0.054 to 0.281 ± 0.053.

GCAAGACC and CCTTCGGC are within error of each other in “PBM E-score of 8-mer” value: -0.115 ± 0.076 for the first, -0.0428 ± 0.025 for the second.

ATCTGGAG and TAGGTTGA are within error of each other in “PBM E-score of 8-mer” value: -0.0671 ± 0.11 for the first, 0.00575 ± 0.0052 for the second.

Compared with CCGTGTGC, ACTAGTGG is higher in “PBM E-score of 8-mer” value: -0.0298 ± 0.043 for the first, 0.0669 ± 0.0084 for the second.

AGTCTGTC and AGAGACGG are within error of each other in “PBM E-score of 8-mer” value: -0.151 ± 0.028 for the first, -0.15 ± 0.096 for the second.

First: ATAGCAAC
Second: AAGAGGGA
The “PBM E-score of 8-mer” value of the first is higher: 0.165 ± 0.0021 for the first, -0.114 ± 0.042 for the second.

CGACGCAA and TCGCCGCA are within error of each other in “PBM E-score of 8-mer” value: 0.0226 ± 0.043 for the first, -0.0222 ± 0.026 for the second.

TAATACCA and AGCGTCGG are within error of each other in “PBM E-score of 8-mer” value: -0.108 ± 0.022 for the first, -0.0569 ± 0.081 for the second.

ACAGAGAG and AACTTCTA are within error of each other in “PBM E-score of 8-mer” value: -0.0916 ± 0.12 for the first, -0.207 ± 0.031 for the second.

Compared with CCAGTTTA, ACGAGACC is higher in “PBM E-score of 8-mer” value: -0.0969 ± 0.018 for the first, -0.024 ± 0.015 for the second.

First: CGCAGGCG
Second: AGCGATAG
The “PBM E-score of 8-mer” value of the first is higher: 0.311 ± 0.013 for the first, 0.0622 ± 0.041 for the second.

CCATGTTA and CCTCGTAA are within error of each other in “PBM E-score of 8-mer” value: -0.052 ± 0.064 for the first, -0.143 ± 0.069 for the second.

First: TAGGCGAA
Second: AGGACCTA
The “PBM E-score of 8-mer” value of the first is higher: -0.00988 ± 0.019 for the first, -0.182 ± 0.032 for the second.

Going from AACAACGA to CAGGGCGG, the “PBM E-score of 8-mer” value falls from 0.012 ± 0.057 to -0.113 ± 0.029.

AATGACAA and GCGGTCAC are within error of each other in “PBM E-score of 8-mer” value: 0.102 ± 0.06 for the first, 0.116 ± 0.087 for the second.

Compared with AGGTCACA, AACCGCTA is lower in “PBM E-score of 8-mer” value: 0.27 ± 0.017 for the first, 0.137 ± 0.0032 for the second.

Compared with CGTCAAAC, ATCAATAA is lower in “PBM E-score of 8-mer” value: 0.113 ± 0.0074 for the first, -0.279 ± 0.033 for the second.

First: AAGTCGAA
Second: CGCTGCGC
The “PBM E-score of 8-mer” value of the first is lower: -0.24868 ± 0.00016 for the first, 0.0144 ± 0.018 for the second.

Compared with CTTTGAAA, TCAGTCCA is higher in “PBM E-score of 8-mer” value: -0.236 ± 0.015 for the first, -0.136 ± 0.021 for the second.

GCTGTCCA and AAGCTAGT are within error of each other in “PBM E-score of 8-mer” value: -0.0682 ± 0.095 for the first, 0.0346 ± 0.029 for the second.

Going from AACCAATT to CCAGTTCC, the “PBM E-score of 8-mer” value falls from -0.0573 ± 0.049 to -0.143 ± 0.0064.

Going from TATAGCCA to CGGCGGCA, the “PBM E-score of 8-mer” value rises from -0.0771 ± 0.047 to 0.0897 ± 0.064.

Compared with CGGCAGTC, ATCTCGCC is higher in “PBM E-score of 8-mer” value: -0.129 ± 0.048 for the first, 0.206 ± 0.017 for the second.

Compared with TCCGGCCA, ATACGTTG is higher in “PBM E-score of 8-mer” value: -0.143 ± 0.04 for the first, -0.0321 ± 0.038 for the second.

Going from CGCATCAC to CATGTCGA, the “PBM E-score of 8-mer” value falls from 0.187 ± 0.046 to -0.062 ± 0.00094.

TAATTTGA and AAAGATCT are within error of each other in “PBM E-score of 8-mer” value: -0.128 ± 0.074 for the first, -0.0992 ± 0.087 for the second.

First: TACTTATA
Second: AAACCTTT
The “PBM E-score of 8-mer” value of the first is higher: 0.0474 ± 0.074 for the first, -0.143 ± 0.0017 for the second.

Compared with ACGCTTCT, CCCGTACA is lower in “PBM E-score of 8-mer” value: 0.106 ± 0.035 for the first, -0.0694 ± 0.029 for the second.

GATAGCTA and CGACTGAC are within error of each other in “PBM E-score of 8-mer” value: -0.0637 ± 0.074 for the first, 0.0283 ± 0.029 for the second.

Compared with CAAATATC, GTACCAGA is lower in “PBM E-score of 8-mer” value: -0.0117 ± 0.1 for the first, -0.182 ± 0.033 for the second.

Going from TGGTTTAA to ATCTCGTG, the “PBM E-score of 8-mer” value rises from -0.115 ± 0.037 to -0.0464 ± 0.013.

Going from ATTCCCCC to ATCACTCC, the “PBM E-score of 8-mer” value rises from -0.328 ± 0.037 to 0.0223 ± 0.059.

Compared with ATACGCAG, CACGCCCC is higher in “PBM E-score of 8-mer” value: 0.073 ± 0.021 for the first, 0.193 ± 0.057 for the second.
